Results as given in paper PMC4336329 (PLoS ONE, 2015).
The whole screen tested about 310,000 compounds, of which about 14,000 (4.5%) showed an effect of 50% or more. The effect is printed as a negative number. Some of the results follow.

Target: human ether-à-go-go-related gene (hERG) potassium channel (human, UniProt Q12809)
Assay: primary screen, population patch clamp on CHO cells stably expressing hERG
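Also: peak tail current of the secondary pulse compared with the same well before compound.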

Chain of human ether-à-go-go-related gene (hERG) potassium channel (Q12809 whole entry, looked up): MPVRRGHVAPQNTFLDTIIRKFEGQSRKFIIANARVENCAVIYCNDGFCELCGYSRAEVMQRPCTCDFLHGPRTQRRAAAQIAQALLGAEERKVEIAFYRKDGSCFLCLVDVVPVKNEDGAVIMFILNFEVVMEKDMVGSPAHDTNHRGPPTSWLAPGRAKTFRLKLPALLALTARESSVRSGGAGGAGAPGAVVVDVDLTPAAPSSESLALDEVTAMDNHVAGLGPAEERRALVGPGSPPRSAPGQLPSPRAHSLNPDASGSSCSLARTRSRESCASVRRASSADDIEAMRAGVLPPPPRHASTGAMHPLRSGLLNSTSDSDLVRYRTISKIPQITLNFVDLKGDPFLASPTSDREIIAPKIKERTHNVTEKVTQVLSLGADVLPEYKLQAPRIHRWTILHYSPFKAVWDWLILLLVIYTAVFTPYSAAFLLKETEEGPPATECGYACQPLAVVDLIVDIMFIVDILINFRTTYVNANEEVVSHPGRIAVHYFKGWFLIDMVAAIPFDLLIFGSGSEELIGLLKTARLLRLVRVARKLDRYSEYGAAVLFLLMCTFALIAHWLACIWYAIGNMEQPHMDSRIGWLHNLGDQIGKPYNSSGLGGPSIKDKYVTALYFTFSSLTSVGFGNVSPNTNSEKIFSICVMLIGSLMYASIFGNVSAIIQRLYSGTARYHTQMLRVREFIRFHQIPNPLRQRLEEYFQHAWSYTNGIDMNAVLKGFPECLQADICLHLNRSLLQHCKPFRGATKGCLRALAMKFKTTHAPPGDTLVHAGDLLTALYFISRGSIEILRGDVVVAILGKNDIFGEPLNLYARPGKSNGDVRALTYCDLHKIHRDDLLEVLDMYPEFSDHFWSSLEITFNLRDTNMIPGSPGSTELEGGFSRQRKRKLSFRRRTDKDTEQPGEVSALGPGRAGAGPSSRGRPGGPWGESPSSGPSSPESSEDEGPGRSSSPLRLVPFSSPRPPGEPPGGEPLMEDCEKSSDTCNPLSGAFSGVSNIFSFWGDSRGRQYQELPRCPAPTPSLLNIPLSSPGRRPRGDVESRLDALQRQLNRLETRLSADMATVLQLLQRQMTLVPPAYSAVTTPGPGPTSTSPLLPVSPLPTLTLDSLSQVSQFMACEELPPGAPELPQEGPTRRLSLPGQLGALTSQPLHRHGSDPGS

| SMILES | hERG current change (%, negative = inhibition) at 10uM [%] |
| --- | --- |
| O=C(NCCS(=O)(=O)N1CCN(c2cccc(Cl)c2)CC1)c1ccco1 | -73.8 |
| O=c1[nH]c(SCC2CCCCO2)nc2ccccc12 (centres unmarked) | 5 |
| CC(C)CC(c1nnnn1C(C)C)N1CCN(c2ccccc2)CC1 (centres unmarked) | -8.55 |
| Cc1ccc(Nc2nnc(SCC(=O)Nc3ccc(S(=O)(=O)N4CCOCC4)cc3)s2)cc1 | -30 |
| COc1ccc(CCN2CC(C(=O)NCCc3cccnc3)CCC2=O)cc1 (centres unmarked) | 2.92 |
| CCOc1ccc(CNC(=O)CCS(=O)(=O)c2ccc3c(c2)NC(=O)CO3)cc1OC | 27.9 |
| COc1ccc(N2CC(C(=O)Nc3c4c(nn3-c3ccccc3)CS(=O)(=O)C4)CC2=O)cc1 (centres unmarked) | 0.77 |
| Cc1cccc(OCCCC(=O)NNC(=O)CCN2CCN(c3ccccc3)CC2)c1 | -13.7 |
| CCCCSc1nc2c(cnn2-c2ccccc2)c(=O)n1N | -23.9 |
| CCCCNC(=O)c1onc(CSc2ccc(Cl)cc2)c1C(=O)NCCCC | -20.5 |
| O=C(Nc1cccnc1)C1CCCN(S(=O)(=O)c2cccc3nsnc23)C1 (centres unmarked) | -1.77 |
| COC(=O)c1cn(Cc2cccnc2)c(=O)c2ccccc12 | 3.15 |
| Cc1cccc(C(=O)Nc2sc(-c3ccccc3)cc2C(=O)O)c1 | 13.1 |
| COc1ccc(/C=C2/C(=O)NC(=O)N(c3ccc(C)c(C)c3)C2=O)cc1CN1C(=O)c2ccccc2C1=O | -11 |
| COC(=O)Nc1ccc(S(=O)(=O)Nc2cc(OC)nc(OC)n2)cc1 | 9.41 |
| COc1ccc(CNCCNC(=O)c2nonc2N)cc1OC.Cl | -24.8 |
| O=C(NCc1ccccc1)C1=C[C@H](C2CCCCC2)C[C@H](OCc2ccc(CO)cc2)O1 | -1.09 |
| O=C(CSc1nc(=O)n2ccccc2n1)OCc1ccccc1 | -22.7 |
| O=C(CSCc1c(F)cccc1Cl)NCc1ccco1 | 5.05 |
| O=C(CNS(=O)(=O)c1cccc(Cl)c1)OCc1csc(-c2ccccc2)n1 | 0.00998 |
| Cc1cccc(C)c1NC(=O)CN(C)CC(=O)N(C)CC(=O)Nc1ccccc1Br | 14 |
| O=C(NCCc1ccccc1)C1CCCN1C(=O)Nc1ccccc1 (centres unmarked) | 10.7 |
| COc1cccc(C2CC3(CC(C)(C)NC(=S)N3)Oc3cc(O)ccc32)c1 (centres unmarked) | -12.4 |
